# Measurements reported in patent publication US20030166542A1, “Systemic immune response induced by mucosal administration of lipid-tailed polypeptides without adjuvant” (INSTITUT PASTEUR, priority 1999, published 2003).
# *: point of attachment. Palmitoyl = CCCCCCCCCCCCCCCC(=O)*
# System: BALB/c, C3H/HeJ, C57BL/6 mice
# Test: Serum polypeptide-specific IgG ELISA after immunization of mice
# Type: in vivo
# Excerpt: To investigate the ability of lipid-tailed polypeptides to induce systemic antibody responses using mucosal route, the LSA3-NRII lipid-tailed polypeptide was administrated either intranasally (I.N.) or sub-lingually (S.L.) in BALB/c, C3R/HeJ which were found previously to respond strongly to the epitopes of LSA3-NRII or C57BL/6 mice which is poorly responsive. Negative and positive controls received respectively, the non-lipidated polypeptide administrated by IN and S.L. route, or the same lipid-tailed polypeptide injected subcutaneously (S.C.) without adjuvant
# Individual blood samples were obtained via the retro-orbital plexus by 9 to 15 days post immunization (dpi) and sera were stored at −70 iC until assayed for IgG, IgA and IgM polypeptide- and parasite-specific Abs. The presence of anti-peptide antibodies in sera was determined using Enzyme-linked immunosorbent assay (ELISA) as reported previously (BenMohamed et coll., 1997). ELISA plates (Nunc, Roskilde, Denmark) were coated overnight at 4 iC with 0.1 ml of LSA3-NRII or LSA1-J polypeptide solution at 3 μg/ml in PBS buffer pH 7.4 containing 3% BSA. The LSA1-J polypeptide was used as the irrelevant control of LSA3-NRII and vice versa. The plates were washed twice in PBS with 0.01% Tween-20 (PBS-T), blocked for 1 hr in PBS-T supplemented with 1% BSA prior to the addition of 0.1 ml of 1/100 dilution of mouse sera. The plates were then incubated at 37 iC for one hour. After washing, the bound IgG were detected using peroxidase-conjugated goat anti-mouse IgG (Biosys, Compiégne, France) added at a 1/2000 dilution. Following incubation at 37° C. for 1 hour and a final wash, 50 μl of 0.30% H2O2 containing orthophenylenediamine dihydrochloride (OPD, Sigma, St Louis), dissolved in 0.1 M citrate buffer (pH 5.0) were added to each well at room temperature. The OD450 nm was measured using a multichannel spectrophotometer (Titertek Multiskan MCC. 340). Individual sera from all groups were diluted 1/100 and analyzed separately. […] Isotype analysis of mouse was carried out using class specific alkaline phosphatase-conjugated Goat anti-Mouse IgA, IgM, IgG1, IgG2a, IgG2b or IgG3 HRP-Labeled (Southern Biotechnology Associates, Birmingham, USA) added at a 1/2000 dilution in PBS-T, as previously described (BenMohamed et coll., 1997).
substance,measurement,setting,value
"Ac-LEESQVNDDIFNSLVKSVQQEQQHNVK(Pam)NH2 (Ac-LEESQVNDDIFNSLVKSVQQEQQHNVK(Palmitoyl)-NH2; SMILES CCCCCCCCCCCCCCCC(=O)NCCCC[C@H](NC(=O)[C@@H](NC(=O)[C@H](CC(N)=O)NC(=O)[C@H](Cc1c[nH]cn1)NC(=O)[C@H](CCC(N)=O)NC(=O)[C@H](CCC(N)=O)NC(=O)[C@H](CCC(=O)O)NC(=O)[C@H](CCC(N)=O)NC(=O)[C@H](CCC(N)=O)NC(=O)[C@@H](NC(=O)[C@H](CO)NC(=O)[C@H](CCCCN)NC(=O)[C@@H](NC(=O)[C@H](CC(C)C)NC(=O)[C@H](CO)NC(=O)[C@H](CC(N)=O)NC(=O)[C@H](Cc1ccccc1)NC(=O)[C@@H](NC(=O)[C@H](CC(=O)O)NC(=O)[C@H](CC(=O)O)NC(=O)[C@H](CC(N)=O)NC(=O)[C@@H](NC(=O)[C@H](CCC(N)=O)NC(=O)[C@H](CO)NC(=O)[C@H](CCC(=O)O)NC(=O)[C@H](CCC(=O)O)NC(=O)[C@H](CC(C)C)NC(C)=O)C(C)C)[C@@H](C)CC)C(C)C)C(C)C)C(C)C)C(N)=O) [LSA3-NRII lipid-tailed polypeptide, palmitoyl lipid-tailed polypeptide derived from P. falciparum LSA-3]","mean titers of IgG antibodies, mucosal routes versus S.C. route","BALB/c and C3H/HeJ, p<0.05",significantly higher than those recorded by S.C. route
same,antibody response,"C57BL/6 strain, mucosal or subcutaneous administration",No antibody response
same,polypeptide-specific antibody responses in serum (ELISA),"I.N. or S.L. administration, BALB/c and C3H/HeJ, two weeks after second administration, no adjuvant",high titers
same,"polypeptide specific antibody titers, sub-lingual versus intranasal groups","p<0.05 in BALB/c, p<0.01 in C3H/HeJ",significantly higher in sub-lingual immunized groups than in intranasal groups
